Reference: the supplement of paper PMC3334620
Over roughly 33,000 sequences, “E-score (-0.5 to 0.5)” has its median near -0.012; the highest 2% begin near 0.27. The list shows a part of the results.

biological target: T1, Vhr1 (UniProt P40522); assay: PBM E-score (8-mer binding enrichment) (E-score (-0.5 to 0.5)); higher = stronger / more preferred TF binding; most listed sequences are background and not binding sites; details: protein concentration: 200 nM; construct: GST-full length
T1 sequence: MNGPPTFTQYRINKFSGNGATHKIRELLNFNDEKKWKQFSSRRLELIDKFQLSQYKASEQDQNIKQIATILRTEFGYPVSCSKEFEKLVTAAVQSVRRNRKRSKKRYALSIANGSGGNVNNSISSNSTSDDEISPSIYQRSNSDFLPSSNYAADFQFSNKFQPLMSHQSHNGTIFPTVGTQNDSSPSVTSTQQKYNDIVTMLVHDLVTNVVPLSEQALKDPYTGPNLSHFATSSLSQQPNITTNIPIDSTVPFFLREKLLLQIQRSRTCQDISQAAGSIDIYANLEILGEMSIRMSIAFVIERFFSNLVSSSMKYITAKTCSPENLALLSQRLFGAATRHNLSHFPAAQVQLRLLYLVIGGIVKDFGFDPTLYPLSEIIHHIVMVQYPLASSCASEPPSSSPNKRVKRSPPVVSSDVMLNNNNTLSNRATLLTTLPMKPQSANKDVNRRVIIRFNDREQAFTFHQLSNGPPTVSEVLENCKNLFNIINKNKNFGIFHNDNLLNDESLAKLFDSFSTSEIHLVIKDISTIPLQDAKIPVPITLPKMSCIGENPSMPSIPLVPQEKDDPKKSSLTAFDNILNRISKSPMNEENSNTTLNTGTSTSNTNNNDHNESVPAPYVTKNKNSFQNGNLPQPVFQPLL
In short: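 Detection of bound protein used fluorescent anti-GST, with scans normalised by masliner. The proteins were GST-tagged yeast transcription factors applied at about 100-200 nM to universal all-10-mer Agilent arrays made double-stranded by primer extension. Each ungapped eight-base word, pooled with its reverse complement, was scored with an E-score from the Universal PBM Analysis Suite.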

Sequence	PBM E-score
CCTTCATC	-0.134
GGTATAAA	-0.229
GAATGCTA	-0.124
GGCTTCTA	-0.187
ACACCACC	-0.00338
GCCATTCC	0.0224
ATTCTGTG	0.102
GATATATA	0.284
CGCTATGC	-0.115
TGCTCTAA	-0.112
AGGCGCAG	0.015
CGGCAACC	0.096
AGGGAAAT	-0.0127
ACTACTTC	-0.00968
CAGTCTAC	-0.181
AGACAGAG	-0.127
ATGCAGCC	0.0494
CGGAATGA	0.102
AAGCGAGG	-0.109
CGACACAC	0.205
CAAAACCG	-0.073
GATCGAGA	-0.00029
GGACTCGA	0.107
TACCACGA	0.0666
CGAAGCTC	-0.0506

Sequence	PBM E-score
ATACGGTC	-0.0319
ATTGCGCA	0.0697
ATTGGTTC	0.11
CCTTCGCG	0.0573
CGCATGGA	-0.0655
CATTATGG	0.086
ATCTTGTC	0.11
CTCTCTGA	0.0612
CTAACCGA	-0.0175
CATTGTTA	0.0574
AGTGTGGC	-0.0195
ATGTGGCC	0.0995
CATTCCAG	-0.0773
GGAACCCA	0.163
GAGTGATA	0.137
AACGCCAA	-0.0738
ATGGCCGG	-0.193
CCCGCTCA	-0.0605
AGAAGGAG	-0.129
AGGATTGA	0.0401
CTGGGCGC	-0.0767
ACCCAATC	0.0998
AGAACCAA	-0.0911
GACTGGCA	-0.0149
AGCAATCG	0.108

Sequence	PBM E-score
CAATTGGG	-0.0505
ACGTTTGA	-0.121
CTTGGCAC	-0.17
GCCAGAAC	-0.0322
CGGGTAGC	-0.041
ATATAGCC	0.169
CTTGGCCA	-0.0546
ATCTTCCA	-0.08
GCGACTAA	0.316
CGGTTGTC	0.00585
ATATCTAC	0.146
GCCTGTAA	-0.11
AGCTCGAC	-0.00221
CCCAGGCC	-0.116
ATTACCTA	0.0371
AGTTATAG	-0.0903
GCCCAGCA	-0.00993
AGTGAGAG	-0.185
CAGAGACG	-0.112
AGATAACC	-0.215
ACTACCAA	0.163
ACCGCGGA	0.21
AGCTTTAC	-0.262
AGGAAGAA	-0.232
GAAAGAAC	-0.227

Sequence	PBM E-score
ACGGGGAC	0.0732
CGTTGACA	-0.0813
GGCCTGGA	-0.24
CACAAGTC	-0.144
CCGTCCCA	-0.0107
ATGATAAT	0.151
ATGCTCGA	0.0251
GATGGGTA	0.285
AAAGTGGC	-0.0225
GCTCATAA	0.0821
ATCAGGTC	0.0435
AATAATCG	0.0624
AGTGTCCC	0.0737
ACGGATAC	0.167
CTTTGACA	-0.325
CACCAGCC	0.143
CTTCGCAA	-0.0787
GGGCCATA	-0.0954
TATAGCGA	-0.0145
AAACATGA	0.149
TCTCTTAA	-0.235
ACCGGTAG	0.00307
GAAAGATA	0.116
GGTGGCCA	-6e-05
AATCCGAC	0.139

Sequence	PBM E-score
CGTACTAA	0.153
AGTGGGCG	0.0687
CGACTGAA	0.0233
CTGTACTC	-0.0776
ACCCCCCA	-0.206
CGCTCCGA	0.162
ACAATGGA	0.153
ACGCTTCC	-0.0935
GACTAAAC	0.121
CAAGCGTG	-0.00913
TCTATACA	0.0487
AGACTAGG	-0.00114
ATCTTAGG	-0.132
AACCTCGT	-0.023
CCCACAGA	0.0858
GTGGTGGA	-0.0346
ATCAGATA	0.173
CGGATAGA	0.0515
CGATTAGA	-0.0717
GGTACCTA	-0.0379
GCGACACA	0.222
CACCAGTC	0.0675
ATCGTAGG	-0.144
ATATAATG	0.112
ACTGTGGG	0.119

Sequence	PBM E-score
AGATTGCA	-0.0423
CGTAGATA	-0.137
CCGGGCAA	-0.0163
CCCGCGTC	0.19
GAGTAGCC	-0.00716
TCCTTTAA	-0.164
CGAGTGAC	0.0621
GGGAGACA	0.123
AATGTGCC	-0.213
GCGTTACC	-0.138
CCGCGAGC	-0.0165
GTGTCGCA	-0.0584
AATGGGTA	0.0928
GCCCCTCC	0.331
CCTGCATA	-0.0346
CCCAGTAC	-0.0361
AGGACTTA	-0.0181
AACGGTAT	-0.212
CGCGGATC	0.0704
CGCACAGC	-0.0228
AAGGGGGC	-0.176
AGTGAAGC	-0.123
GGTAAACA	0.118
AAATCTGG	-0.00214
AGCTGAAC	-0.129

Sequence	PBM E-score
AGTTCCCC	-0.0101
AAGTAAGG	-0.158
AAAGCATC	0.037
TACTCGAA	-0.0455
ATGGGGAA	0.0181
GTGATCAC	0.245
AATCGACC	-0.119
CTGCGCGA	0.0504
ATATGTGG	0.132
AGACAACT	-0.0266
GCTTCGAA	-0.109
CGTCATAC	0.189
GAGAGAGA	-0.0265
GCCTTTAA	-0.244
AATTCGGC	-0.158
TAAGGTAA	-0.00935
GCTGCAGC	0.00163
GCGGATTA	0.00137
CGGGTTAC	-0.0592
ACTTTGCT	-0.211
CTTCAGGC	-0.108
GAGGTGTA	-0.038
